Laboratory results as given in the RNAGym collection of RNA variant scans (doi:10.7554/elife.90254).
Read counts are not given, so values of variants with three or more changes are uncertain.

B1: OR4K15 (parent)
chain: GUUAACGGUCAUAGGCCAUGGAAACUAGGAGCACCAUUUCGCUGCCAGUGAAGAAAUGAACAAAGAAAAUCUGGGCCAGGCAGGCAUCAAAAGAAAUAGUCUUGCGCUCAACCAGAAAGUCUGUAAUCAUUUUAAGGGUA

Variants of: B1
Test: self-cleavage, relative activity (ratio to wild type); higher = more cleavage; in vitro, sequencing; the parent is a self-cleaving ribozyme

Variant | self-cleavage
A11G A18G A63G A91G A135U A140G | 0.57
C42U A64G A78U | 0.36
A52U A66U A78G | 0.09
G99A A114G U130C | 0.01
U12C U87C A111G | 0.04
A18U G106C A114G | 0.01
A24U U39C A66G | 0.75
A54G A64G A117G | 1.28
A68U U108C A111G U139A | 0.01
A36U A51G A111G | 0.01
U19C A24G A36C | 1.81
A68G A82G A96G | 0.66
U9A U87A A95G | 0.74
G21A U38C U39C U87A U122A A126G | 1.8
A54G A55U U103C | 0.32
G14A U26C U130C | 0.63
U39C A78G U108G | 0.01
A54G A59G A114G A116G | 0.44
G20A A30G U100C U124C | 1.58
A36U U49C A126G U139C | 0.81
U2C U39A A118G C128A | 0.26
A51G A64G G79C A82U U139A | 0.16
U37C A52G G73A A91G | 0.06
U3C A47U A52U A62G | 0.67

Variant | self-cleavage
G41A C45G U103C | 1.07
A5G A66G A90G | 0.19
A60G A91G A126U U139A | 0.76
A33G A54G U87C A114G | 0.41
A69C A95G A111G A126G | 0.01
A47G U87C U120G | 0.48
A47G A59G A64U | 0.77
U2C G21A G74A U130C | 0.3
A86U A117G U122C | 3
A59G A69G A92G U122C | 0.99
U37C A64G U87C A125G | 0.46
U57C A114C A126G | 0.01
A52G A54G A92G U102C U131C | 2.27
U37A A56G A94G | 1.4
U49A U100C A126G | 1.3
A59G A67G A78U U130C | 0.25
A54G A64G A140G | 1.34
U12C A24G U39C G84U | 0.45
G7A C17A A64G | 1.76
A33G A36G A135G | 0.44
U9C U38C A90G U108C | 0
A30U A68U A96G | 1.1
A33G A52U U102A U120C | 0.1
A59G A62G A67G U87C U97C U131C | 1.53

Variant | self-cleavage
U9A A62G A94G | 1.18
C10U A114C A117G A126G | 0
A47G A54G A114G | 0.23
A23G A98U U100C | 1.46
A111G A118G C121A | 0.01
A11G U38A U100C U132C | 1.56
U9C A86U A135G | 2.99
U37C A59G U100C A118G U122C A125G | 1.78
A56G A95G A114U | 0.09
A24G G48A A82G | 0.42
A51G U102G U103C U108A | 0.02
U3G A66G U132C | 1.03
A82G A92G A96G | 0.31
A23G A60C A92G U100A | 0.48
U19G A30U A134G | 1.78
U9G A54G G99A A116U | 0.32
A24G A51G A68G A82G | 0.74
A24G U39C U72C A96G A114C U133C | 0.02
A11G A62G G93A | 1.26
A4G U39C A69G A117G U120A | 1.99
A18G U19C U70C A95C A118U | 0.13
A94G A111G A114U | 0.02
U9A U38C A62G G74C U132A | 0.2
A5G A82U U87C | 0.13

Variant | self-cleavage
A11U A24G C40U A47C A52G A62G A66G A68G | 1
U103C A117C A125G | 0.12
C17U G21A A118G U124A | 0.4
A13G U43C U70C A110U | 0.6
U19C A90G A135U | 0.53
A59G U72A A89G A95G | 0.14
U43G A110G U127C | 0.26
U12C A111G G115A | 0
A30G A116G U130C | 0.13
U2C A59G A82G U127A | 0.78
G41C A64C A95G A116U | 0.54
A89G A96G A126G | 0.64
A4G A51G A62G A68G | 1.4
G20U A33G U122C | 0.2
C61U U130C U131C | 0.43
A54U A98G A117G | 0.63
U12A A54G A60G | 1.27
U2A A18G G58A | 1.02
A68G U103C U139C | 1.16
A47U A54G C128U | 0.48
A23U A86U U108C | 0.04
A59G A62G A69G | 1.27
A91G U122A U139A | 0.67
A11G U12C A30G A95C | 0.97

Variant | self-cleavage
U26C A52G A59G U130C | 0.35
A22G A23U G93A | 1.23
A23G C77U A126G | 0.9
A30G U37C U100C U108C | 0.02
A56G A63G A110G | 0.2
U2A A23G A95G | 1.02
A69G A86G U97C | 0.56
A27G G53A A64G U70C A92U U133C | 0.93
A60G A64G A86G | 1.1
U120G A129G U132C | 2.53
U9C A60U C85U A91G | 0.68
A5G U37A A94U A111G | 0.2
U37C A78C U132C | 0.24
A54G A69G U103G | 0.01
A4G U49G A54G | 0.79
U72A A82G A110G C112U | 0
U87C A92G G104U G123A | 0
A47U A63U A140G | 1.39
C35U A47U A55G A64G U100C C113U U122C | 0.02
U2C G58A A116G | 0.19
A11G A18G A91G A95G A135G | 1.11
A22G U108C A117G U122A | 0
U9A A22G C35U A64G A110G G123C | 0.04
U2C A23G A118G | 0.5

Variant | self-cleavage
A5U A33U A82U U127C U131C | 0.13
G41A A59C A64G A90G | 0.93
A78U A116G U130C | 0.03
A5U U9C A82U A94G A96G | 0.34
U19C A23C A51G A62G A116C U124C | 0.24
C77U A89G A116G A118G | 1.2
U37C A52G A98G A114U U122C | 0.01
A47G A78G A95G U124C | 0.1
U38C G65A A95G | 1.99
A13G U37C A55G U124A | 0.65
A51G A56G A66G A69G A94U | 0.95
U37C A59U U100C | 2.56
U49C A52G A114U A129U | 0.02
U70A U127C U131C | 0.9
A47G A117G C128U | 1.05
A30G A33U A92G U120A | 1.3
A59U A66G A126G | 2.26
U2C A89G A126G U132C | 0.26
U2C A52G A78G | 0.37
U2C U87C A114G | 0.16
A67C A69G U102C | 1.59
A13U U49C U120C A126U | 0.53
A18C A63G U120A | 1.14
A59G A60G U120A A125G | 0.29

Variant | self-cleavage
A13G A22U A33U U43C A69G A82U A117G U130C | 0.18
A11G A64G A67G G84A A91G | 1.54
A11G A30G A118G U122C | 0.61
A23G C25U U131G | 0.93
A52G A56G U130C | 0.82
U12C A30G A54G A66G A111G | 0.01
U19A U26C A64G | 1.12
A52G U57C A91G | 1.26
A24U U37C G53A A67G A94G | 0.89
A64G A82G U124C | 0.24
A18U A23G A90G A94G U102A | 0.52
A4G A23G A69G | 1.1
A11G A23U A52G A63G A66G A114U | 0.08
A27U A82C A91U A126G | 0.11
A4G A59G A78G | 0.67
A47G A116G A117G | 0.19
A11G A22G A52G | 1.09
A23G U37A A126G U132C | 1.68
U19C U100C A116C G123C | 1.65
A47G U70C A90C | 0.46
A86G A91G A111C | 0.02
U2C U43A A68G A86G | 0.91
A23G A30G U39C A52U | 1.15
